Experimental data reported in ChEMBL document CHEMBL4888484, “Replenishing the malaria drug discovery pipeline: Screening and hit evaluation of the MMV Hit Generation Library 1 (HGL1) against asexual blood stage Plasmodium falciparum ,using a nano luciferase reporter read-out” (2022).
Screen size: about 150,000 compounds; about 540 (0.36%) showed an effect of 50% or more. This is one part of the list.

System: Plasmodium falciparum
Experiment: Primary screen in NF54 nanoGlo assay, in single point, at 2uM, 72h; a lower Z score goes with more inhibition
Format: functional, Erythrocyte
Settings: timepoint 72 hour

Compound | % Inhibition | Z score
O=C(NCCc1ccccc1)c1c(-c2ccccc2)n(Cc2cccs2)c(=O)n1CCN1CCOCC1 | -17% | 1.47
CC(C)(C)c1cc2nc(C(=O)NCCc3ccccn3)cc(-c3ccccc3F)n2n1 | -14% | 2.06
Cc1ccc(C)n1-c1ccc(Cl)c(C(=O)NC[C@H]2COCCO2)c1 | 31% | -4.2
O=C(Cc1cccnc1)N(CCO)C1CCC1 | 7% | -1.17
CCCCCc1nnc(NC(=O)C[C@H]2C(=O)N(C)C(=O)N2C)s1 | -7% | 1.21
CCOCCC(=O)N1CCC2(CC1)C[C@H](c1ccccc1)C(=O)N2C | -2% | 0.27
O=C1CC(CC(=O)N2CCCCC2CO)(c2ccccc2)C(=O)N1Cc1cccs1 (centres undefined) | -8% | 1.54
O=C(c1cccc(Cl)c1)N1CCC[C@H]1c1ccsc1 | -4% | 0.55
Cc1ccc(/C(N)=N/NC(=O)OC(C)(C)C)cc1F | 2% | -0.27
O=c1nc(CNC(Cc2ccc(F)cc2)C2COc3ccccc3O2)[nH][nH]1 (centres undefined) | -6% | 0.93
CN(C(=O)c1cccc(-c2ccoc2)c1)C1CCS(=O)(=O)CC1 | -2% | 0.29
Cc1cc(C)c(C)c(C(=O)NCCC(=O)N2CCN(C(C)C)CC2)c1C | -7% | 1.05
CN1CCC(C)(C(=O)NCCc2c[nH]cn2)CC1 | -9% | 1.63
Cc1ocnc1CNC(=O)C[C@H](C)c1ccc(F)cc1F | -11% | 1.08
Clc1ccccc1[C@@H]1C=C(c2ccc(-c3ccccc3)cc2)Nc2nnnn21 | -5% | 0.52
CCCNC(=O)C1CCN(c2nc3ncn(CC(=O)NCc4ccccc4)c(=O)c3s2)CC1 | -13% | 2.02
c1ccc(Cn2c3c(c4ccccc42)CNCCC3)nc1 | -10% | 1.27
CCCNC(=O)C1C(c2cccc(NC(=O)c3ccc(OC)cc3)c2)OC(=O)N1Cc1ccc(C)cc1 (centres undefined) | -14% | 1.33
Cc1n[nH]c2c1CN(Cc1nncn1C(C)C)CC2 | -5% | 0.99
COC(=O)c1cn(Cc2cccnc2)cc2c(O)nnc1-2 | 0% | -0.02
Cc1nc2cc(C(=O)O)ccc2n1Cc1ccsc1 | -20% | 2.66

Compound | % Inhibition | Z score
O=S(=O)(NC[C@@H]1CCCN2CCCC[C@H]12)c1ccc2[nH]cnc2c1 | -13% | 1.7
COc1ccc(Cl)cc1NC(=O)Cn1nc(-c2ccc3c(c2)OCCO3)ccc1=O | -5% | 0.42
CC(C)(C(=O)Nc1cn[nH]c1)C(F)F | -6% | 0.7
C[C@H]1CN(Cc2nc(C3CCCCC3)cs2)S(=O)(=O)C1 | -8% | 1.28
CCc1nc2c(s1)[C@@H](N(C)CCC(=O)Nc1cc(C)on1)CCC2 | -2% | 0.33
CC(C)c1cc(C(=O)N2CCC[C@@](CO)(CCCc3ccccc3)C2)on1 | 4% | -0.59
O=C(COc1ccccc1F)N(CC(F)(F)F)C1CCOCC1 | -9% | 1.05
CN(C)CCN(Cc1ccco1)C(=O)c1c2c(nc3ccccc13)C(=O)N(C1CCCCC1)C2 | -8% | 0.89
CC(C)(C)CC(=O)N1CCc2ncncc2C1 | 0% | 0.07
O=C(NC1(CCO)CCOCC1)c1nc(C2CC2)n2ccccc12 | 5% | -0.68
Cc1nn(C)c(Cl)c1C(=O)NCCCN(C)c1ccccc1 | -6% | 1.21
CC(=O)N(CC(C)(C)CC=C(C)C)C1CCCCC1 | 8% | -0.76
Cc1cccc(C2(c3cccc(C)c3)CC2C(=O)NCC2CCCO2)c1 (centres undefined) | 0% | 0.03
CCN(CC1COc2ccccc2O1)C(=O)NC(C)c1ccccn1 (centres undefined) | -11% | 1.77
Cc1cnc(C(=O)N2CCC[C@H]2c2nc(C3CCOCC3)no2)cn1 | 34% | -4.99
CN(C)c1ncccc1NC(=O)c1ccc(C#N)cc1 | -1% | 0.24
O=C(c1ccc(Cl)cc1OC1CCN(Cc2ccco2)CC1)N1CCCCC1 | -2% | 0.31
Cc1ccc(N(CC(=O)N2CCCCC2)C(=O)c2ccc(C)nc2C)cc1 | -2% | 0.31
Cc1csc(C(=O)N2CC(n3cc(C4CC4)nn3)C2)c1 | -17% | 1.94
N#Cc1cnc(N2CCC(n3cc(Br)cn3)CC2)cn1 | -4% | 0.66
Cn1ccnc1C1(O)CCN(c2ccc(C(F)(F)F)cn2)CC1 | -4% | 0.42
